37 compounds from PubChem BioAssay (NCI) can be followed below.

The structures appear in SMILES notation.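 Compound exposure: 48 hours, 5 concentrations, 96-well plates. Here, GI50 denotes the concentration required for 50% inhibition of growth. TGI: total growth inhibition.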

This assay deals with NCI-H322M lung. As to the kind of experiment: growth of human tumour cells (NCI), 48 h.
For `COc1ccc(OC)c(N(CCN2C(=O)c3ccccc3C2=O)C(=O)CCl)c1`, the GI50 was 18.9 µM and the TGI stood at 39.4 µM.

In the case of `COC(=O)CCC1(C)C2CCC1/C(=N/O)C2` (stereo not drawn), the TGI is more than 100 µM.

`COc1ccc2c(c1)/C(=C\c1c(-c3ccccc3)nc3n1CCS3)C(=O)N2` registered a TGI of 44.6 µM.

Consider `COc1ccc(N2C(=O)C3c4[nH]c5cccc(Cl)c5c4C4CCC(C(C)(C)C)CC4C3C2=O)cc1` (stereo not drawn), for which the TGI was more than 100 µM.

As for `CC(=O)c1c(-c2ccc(Cl)cc2)c(C#N)c(=S)n(C2OC(CO)C(O)C(O)C2O)c1-c1ccccc1` (stereo not drawn), the TGI is more than 100 µM.

As for `c1ccc(-c2n(Cc3ccc4ccccc4n3)cc[n+]2Cc2ccc3ccccc3n2)cc1`, the GI50 was 4.74 µM and the TGI was 19.3 µM.

Take `COCC1OC(OC2OCC3OC4(OCC(O)(C(C)OC)C5OCOC54)OC3C2OC)C(OC)C(O)C1OC1OC(C)C(OC)C(OC2OC(C)C3OC4(CC(O)C(OC5CC(OC6CC(C)([N+](=O)[O-])C(OC)C(C)O6)C(OC(=O)c6c(C)c(Cl)c(O)c(Cl)c6OC)C(C)O5)C(C)O4)OC3(C)C2O)C1O` (stereo not drawn): the TGI is more than 100 µM.

Take `CC(C)Cn1cnc2c(Sc3c([N+](=O)[O-])ncn3C)nc(N)nc21`: the TGI was more than 100 µM.

In the case of `C[n+]1c2ccccc2c2/c(=C\C#N)c3ccccc3n21`, the TGI turned out to be 57 µM.

`C=CCC(NCc1ccccc1)[C@H](OCc1ccccc1)[C@@H]1COC(C)(C)O1` (stereo partly drawn) gave a TGI of more than 100 µM.

In the case of `Cc1ccc(Cl)cc1Nc1nc(C(F)(F)F)ccc1C(N)=O`, the GI50 is 2.06 µM and the TGI worked out at 22.1 µM.

Take `O=C1CNN=C(CSc2nc3ccc(I)cc3c(=O)n2Cc2ccccc2)N1`: the TGI is more than 100 µM.

Regarding `COc1ccc2cnc(N)c(C#Cc3cc(C(=O)Nc4ccc(CN5CCN(C)CC5)c(C(F)(F)F)c4)cnc3C)c2c1`, the GI50 was more than 17.9 µM and the TGI was more than 26.7 µM.

For the compound `CC(=O)N(C(C)=O)c1c(N)n(C)c(=O)[nH]c1=O`, the TGI was more than 100 µM.

For the compound `C[C@H](Nc1ccc2c(c1)OCCn1cc(N3C(=O)OC[C@H]3C(F)F)nc1-2)C(N)=O`, the GI50 was 0.461 µM and the TGI was more than 66.5 µM.

With `CC(=O)NC(CCCN(Cc1ccccc1)C(=O)NCCCl)C(=O)NCc1ccccc1` (stereo not drawn), the TGI is more than 100 µM.

`COc1cc(/C=N/NC(=O)c2c(Cl)c(Cl)c(Cl)c(Cl)c2-c2nc3ccccc3[nH]2)ccc1O` gave a TGI of more than 100 µM.

Turning to `N#Cc1cc2c(cc1Cl)SC(=Nc1ccccc1)N(S(=O)(=O)c1ccc(Cl)cc1)S2(=O)=O`, the GI50 was 16.7 µM and the TGI amounted to 35.9 µM.

The compound `OC1CC1Sc1ccccc1` (stereo not drawn) gave a TGI of more than 100 µM.

Compound `CCOC(=O)c1sc2c(sc(=O)n2-c2ccccc2)c1O` yielded a TGI of more than 100 µM.

Take `C(=C\c1cc(CCc2nc3ccccc3[nH]2)[nH]n1)/c1ccccc1`: the TGI is more than 100 µM.

`[N-]=[N+]=NCC1OCC(O)C(OCc2ccccc2)C1OCc1ccccc1` (stereo not drawn) showed a TGI of more than 100 µM.

For the compound `Cc1ccc2c(=O)cc(-c3ccc(Cl)cc3)[nH]c2n1`, the TGI was more than 100 µM.

`CN(N=O)C(=O)NNC(=O)N(C)N=O` showed a TGI of more than 100 µM.

Compound `O=c1cc(NNc2ccc(F)cc2)[nH]c(=O)[nH]1` gave a TGI of more than 100 µM.

As for `COc1ccc2nc3n[nH]c(N)c3nc2c1`, the TGI is more than 71.8 µM.

The compound `NC(N)=NNC(=O)CCn1[nH]c(=O)c(Cl)c(Cl)c1=O` came in with a TGI of more than 100 µM.

As for `COC(=O)c1oc2c(C(C)=O)c(OCCN3CCOCC3)c(OC)cc2c1C`, the GI50 was more than 100 µM and the TGI was more than 100 µM.

In the case of `O=C1/C(=C\c2cccc(Oc3ccccc3)c2)S(=O)(=O)C(c2ccccc2)N1c1cc(Cl)ccc1Cl` (stereo not drawn), the TGI is more than 100 µM.

Consider `CC1=C(C(=O)OCCc2ccc([N+](=O)[O-])cc2)C(c2cccc([N+](=O)[O-])c2)C(C(=O)OC(C)C)=C(C)N1` (stereo not drawn), for which the TGI was more than 100 µM.

As to `O=C(c1ccccc1)N(C(=S)NCCc1ccc(Cl)cc1)c1ccc(Cl)cc1`, the GI50 is 14.2 µM and the TGI worked out at 29.6 µM.

Take `COc1ccc2c(c1)c(-c1nonc1-c1cn(C)c3ccccc13)cn2C`: the GI50 is 1.48 µM and the TGI was more than 100 µM.

With `C=C1CC[C@@H]2C(C)(C)[C@H](O)CC[C@@]2(C)[C@@H]1COc1ccc2ccc(=O)oc2c1`, the GI50 is 23.1 µM and the TGI stood at 71.8 µM.

For `COc1ccc(SS(=O)(=O)c2ccc(OC)cc2)cc1`, the TGI was more than 100 µM.

For `Oc1cc2ccccc2cc1-c1n[nH]c(=S)n1CCc1ccccc1`, the GI50 was 75.1 µM and the TGI is more than 100 µM.

Take `C[C@@H]1OC(=O)C[C@H]2CC(=O)N(CCC3CN(C(=O)c4ccccc4)c4ccccc43)C[C@@H]21` (stereo partly drawn): the TGI is more than 100 µM.

As for `O=C(C(Cl)Cl)N(O)c1ccccc1OCc1ccccc1`, the TGI is more than 100 µM.
